# Data published in the supplement of paper PMC10126150.
# Values marked as one replicate rest on one cluster of the flow cell; about a third of the high ones do not repeat.
# System: ATP
# Assay: switch fluorescence ratio, 500 uM ATP over buffer (Cy3 cluster intensity, sum of 5 cycles each) (fold (ratio)); higher = stronger signal-on switching upon ATP binding; sequences stand for … in TCGTCGGCAGCGTCAGATGTGTATAAGAGACAGTTTTTTTTTTTTTTTTTTTTTTTTT…TC
# Conditions: aptamer strand: ATP DNA aptamer (quencher-CACCTGGGGGAGTATTGCGGAGGAAGG + anchor), 100 nM annealed; ATP concentration: 500 uM; one replicate
# In short: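 Cy3-labelled switching-strand clusters on a modified Illumina MiSeq flow-cell were annealed to 100 nM quencher-labelled ATP aptamer and imaged first in selection buffer, then after 15 min with 500 uM ATP at 22 °C. NaOH stripping and re-annealing separated each of five buffer/ATP cycles, and clusters outside 100-1000 RFU were excluded. The fluorescence ratio sums target-cycle Cy3 intensity over buffer-cycle Cy3 intensity per cluster and averages it per switch-domain sequence.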
# 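Note: ATP exposure 15 min at 22 °C before imaging.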
row,Sequence,switch fluorescence ratio
1,TCGAAGGACC,1.05
2,ACTACTATGT,1.06
3,TACTAGCCCG,1.02
4,TGAAAGGAGC,1.06
5,TTGACTCCTT,1.08
6,CGATAAGGTG,1.3
7,TTTTACAGTC,0.961
8,TGTTTCAAGG,0.978
9,CAGTTGACCC,1.03
10,TACCGAGTTA,0.984
11,TTCCCTGTAT,1.02
12,ATCAACGAGG,1.04
13,CTTAGACACC,0.889
14,TGGCCTACTG,0.963
15,CGCAGCCTTG,1.05
16,AAAGCGTGAA,1.01
17,GGCCAGCCTG,0.979
18,TAATGCCGCG,1.07
19,CGTGTACGGT,0.963
20,AAGGGATAAC,1.02
21,CAATTTCGGC,0.949
22,ATCGGCGGAG,0.964
23,CGAGGTCAGG,1.01
24,CGGGATACAG,1.04
25,GGGGTCTCCT,0.984
26,CAAGGTTTGT,0.984

row,Sequence,switch fluorescence ratio
1,TTATTCGGGC,1
2,TACGCGGTA,1.83
3,CGCCCCTCGC,1.35
4,CGGCACTGGT,0.998
5,CGGAGGTTCA,0.993
6,ATTATCAGTG,0.962
7,AGTTCGCTTA,1
8,AAGCAAATCA,1.01
9,TCCCCGGCCC,1.44
10,GGGAAGACGG,1
11,ACCGAATGC,2.32
12,TCAGGCGCTT,1.02
13,GTCTCGGCTG,1.02
14,TATATCGGTA,1.01
15,TTTGAAGGT,1.03
16,TTATAGATTA,0.961
17,ATGAAATCAC,1.29
18,TCAGATAGTG,0.984
19,TGCAACATGT,1
20,AAAATGTGAG,0.969
21,TCTGAATAGA,0.99
22,TGAAATTGAC,1.12
23,CCCCAGCTC,1.92
24,ACTAATGTCC,1.12
25,CATTCGCCCT,1.43
26,GGCGAGCGTG,0.989

row,Sequence,switch fluorescence ratio
1,AAGCCTTGT,0.995
2,GGCATCTTGT,0.987
3,TAGTAACACC,1.04
4,ATCAGGCAGG,1.06
5,CCTTGATCA,1.02
6,CTATGTCC,0.982
7,TAAACGGGTT,1.03
8,GTATCTAT,1.02
9,AGGGGCTAAC,1.01
10,CATTTTAAAG,1
11,TCGAAAACT,0.972
12,TTGGCACGGT,0.99
13,CCACTCAGAC,1.19
14,CGATGTGACA,1.02
15,CGCCATTTGA,0.975
16,TGCATTAAGA,1.02
17,AAAGGACTAC,1.07
18,GATATTCAAG,1.03
19,GTTGAAAATA,1.04
20,TCAGGTCGGA,0.988
21,GCTGGCCCTG,0.971
22,GTTAGCTCTA,0.972
23,ATAGTTACTA,0.996
24,GGTAGCTTTG,0.989
25,ATCAGCGTGC,1.02
26,CGCATGCGTT,1.06

row,Sequence,switch fluorescence ratio
1,GAGATAAGTC,1.05
2,CGTTTATTTC,0.996
3,TGCCCGACGA,1.16
4,TCTGACCTAA,1.13
5,AACGGCAAA,1.08
6,TTTTTCCTG,1.01
7,TGTTGTGCGC,0.909
8,CCTGTTGGCG,1.04
9,AAGGTTCCGA,1.02
10,GCCTGCTAGT,1.01
11,GTTGGCCTTG,0.976
12,CATCATCAAT,1.55
13,ATCTCCTGGT,1.02
14,GCTCTGACCT,1.2
15,AATTAGGCT,0.997
16,GGAGTGGAAG,0.976
17,AGCTCGGGCC,0.99
18,TGAGCCGGAG,0.955
19,CTGGTCACGA,0.997
20,GCACTCGTTT,0.956
21,AAAAAGGTAT,1.01
22,TCGCTCAATT,1.08
23,CCGCAGTCCC,3.42
24,GATCGTTCTT,0.997
25,GAAACAACAT,1.7
26,AGTTATTCGC,0.994

row,Sequence,switch fluorescence ratio
1,ACTGGAAGGG,1.02
2,CCAAAGGACG,0.944
3,CACGTATGAC,1.07
4,ACTTAAACGA,1.08
5,TTAATTAGTG,1.01
6,CTCCAAATTG,1.29
7,CGTGTCTTCA,1.03
8,CGCCAAGCCA,1.08
9,ATGAGATGAC,1.06
10,TGGCTTAATC,1.01
11,CGAGTTTGCG,1.02
12,ATAGTGGCA,1.02
13,CAGGCTTAAA,0.99
14,GAGATATGAC,0.967
15,CGCTTTGTGG,0.975
16,GGTTCGCTTA,1.06
17,CAAAGAAGCG,1.05
18,TGCGGGTATC,0.998
19,CTTATCAACG,1.02
20,ATGAGTAGTC,1.02
21,TGTGTCCCCG,0.999
22,ATCACCTTGC,2.34
23,CTCTCGTGCA,1.16
24,AGTTGTGTCC,1.01
25,CCGGTGTAGC,1.01
26,TTACGTGCCA,1

row,Sequence,switch fluorescence ratio
1,TTATATATAT,0.982
2,AGCAGCCTCT,1.04
3,AGTAGGATTG,1
4,TTGGAGTCGC,1.02
5,GTCCGCGTTA,2.09
6,TATGCGTAC,1.14
7,CAGTCTCAGC,0.949
8,TTGTACGTAT,1.03
9,TTGGAAAACG,0.993
10,AGTCTCACTT,0.992
11,AGGGTCTTCC,1.19
12,CGGCAGCTAG,1.03
13,CGGGCACCGC,0.872
14,AATTACTTGG,1.03
15,CTTTAATAGC,1.03
16,TGAGTTGGT,0.992
17,GTAATTGAC,1.04
18,GGCGTAAGG,1.02
19,TTAGTTGTCT,0.974
20,CTCCTTTTCC,1.13
21,CATGGTGGAC,0.958
22,GGCGGGACCT,1.03
23,TCTCTCAAAT,1.03
24,GAAACGCCGT,0.996
25,TAACTTGATG,0.998
26,CGCTTTGCTT,0.988

row,Sequence,switch fluorescence ratio
1,AAAGGCATGA,0.996
2,ATTGTGCAG,1.01
3,CGTACACGGA,1.02
4,GCTTTCGTTG,0.984
5,GCGCGCTATA,1
6,TGGCACAATG,0.992
7,CGTGAAATCA,0.998
8,TACGAAGCTT,1.58
9,AGCTAGTATA,1.02
10,ATAAGTCTAT,1.03
11,TTATTGCTCC,1.19
12,ACTGCGCTC,3
13,AGACAGAGCG,1.03
14,GATTCAATTT,0.989
15,GCTGTAAAGT,1.02
16,AACTATAGGG,0.991
17,TAAAAGGCG,1.05
18,GCGCACTGGT,1.03
19,AGGTCAAACT,1.01
20,ACCAAAAAT,1.02
21,GTTGCTGCTG,0.989
22,GATTTCAGAG,0.991
23,TAGCAAAACG,1.06
24,TATTTGTTGA,1.02
25,CGTGCGGGCT,1.11
26,ACACAGCTGC,1.26

row,Sequence,switch fluorescence ratio
1,CAAAAACGGG,1.03
2,ACAGACCGTT,1.1
3,AAAGGTGTGC,1.34
4,CGCCGGTTG,1.02
5,TGTGGGTAGA,0.995
6,TCGCTGCGAG,1.05
7,ACAAATCTTA,1.02
8,GTTAAGCTGT,0.987
9,TTCTCCTGGT,1.01
10,TACATTGCGT,0.973
11,CAATCCGGCG,0.954
12,CCAGCTTATG,0.988
13,GACGATTAG,1.06
14,TATACCTCG,1.02
15,CCAAATTTGT,1.01
16,TTGCTAGACC,1.02
17,GGTGCGTGGT,1.05
18,AAGGAGTCAA,1.06
19,TGGACTGTA,1.3
